From article PMC12040169 (PLOS Biology, 2025)
The list shows a part of the results.

Each compound was assayed on T1, C. trachomatis L2/434/Bu expressing GFP (CTL2-GFP). Details: total inclusion area; 28.5 h, 10 µM; inhibitor.
T1 construct: L2/434/Bu GFP intracellular growth in HeLa cells
Design: species or system HeLa; C. trachomatis total inclusion area by high-content imaging, normalised to DMSO
Summary of the method: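 Post-fluorescence-read fixation, DNA staining with Hoechst and high-content imaging; GFP inclusion area and number per well, and nuclei counts, used as proxies for bacterial growth and host viability.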

SMILES | % of control remaining
O=C(CNC(=S)NC(=O)c1ccc(Br)o1)c1ccccc1 [CBK265310] | 95.7186
NC(=O)CN(CC(N)=O)S(=O)(=O)c1ccccc1 [CBK262490] | 82.7421
COc1cc2c(cc1OC)CN(/C=N/c1sc3c(c1C#N)CC(C)(C)NC3(C)C)CC2 [CBK262918] | 104.043
CC(=O)Nc1ccc(NC(=O)CC2(CC(=O)O)CCCCC2)cc1 [CBK299816] | 112.026
O=C(NCCOc1ccccc1F)C1CC(=O)N(Cc2ccccn2)C1 (stereo not shown) [CBK304632] | 56.5635
O=C(Nc1ccccc1C(=O)N1CCOCC1)C1CCN(C(=O)c2ccco2)CC1 [CBK270272] | 55.9282
O=C(c1cccc(S(=O)(=O)N2CCOCC2)c1)N(Cc1ccc(F)cc1)Cc1ccco1 [CBK265885] | 101.413
Cc1ccc(N)c(C(=O)CCC(=O)O)c1 [CBK017815C] | 29.3458
CCCCNC(=S)NC1CC[C@@]2(Cc3ccc(OC)c(OC)c3)CCN(C)[C@H]2C1 (stereo partly shown) [CBK023805] | 73.7725
CCCn1c(SCC(=O)N2CCN(S(=O)(=O)c3ccc(C)cc3C)CC2)n[nH]c1=O [CBK295590] | 116.562
CC(CC(=O)N1CCCC(c2cc3cccnc3[nH]2)C1)n1ccnc1 (stereo not shown) [CBK285034] | 66.5554
CCCCSc1nc(N)cc(N2CCCC(C(=O)N3CCOCC3)C2)n1 (stereo not shown) [CBK307210] | 105.869
Cc1ccc(CN2CCNCC2CCO)o1 (stereo not shown) [CBK269844] | 120.356
COc1cc(/C=N/NC(=O)CCc2c(C)n[nH]c2C)ccc1O [CBK262925] | 93.3379
CSc1ccc(SC/C(N)=N/O)cc1 [CBK025411C] | 62.1737
Cc1c(C(=O)O[C@H]2C[C@@H](c3ccc(F)cc3)N(C)C2=O)cnn1C [CBK283616] | 98.0843
FC(F)(F)c1cccc(-c2cn3ccnc3c(NCCc3ccccn3)n2)c1 [CBK066491] | 66.4851
COC(=O)CCc1ccc(S(=O)(=O)N2CCCN(Cc3c[nH]c4ccc(OC)cc34)CC2)cc1 [CBK062985] | 87.92
N=C(N)SCC1CNC(=N)S1 (stereo not shown) [CBK260991] | 92.1839
COc1ccc(F)c(CN(CC(C)(C)CN)C(=O)Nc2ccc(C(C)(C)C)cc2)c1 [CBK002461C] | 55.9413
O=[N+]([O-])c1ccc(/C=N/n2c(S)nnc2COc2ccccc2)cc1 [CBK265240] | 80.5895
Cc1nc(C)n(CC2CCCN(Cc3ccc(C#N)cc3)C2)n1 (stereo not shown) [CBK305082] | 63.2886
Cc1cc(S(=O)(=O)N(CCC#N)Cc2ccccc2)c(C)cc1Cl [CBK043461] | 94.4327
NS(=O)(=O)c1cccnc1NCc1ccccc1 [CBK288448] | 49.9763
CC(C)c1ccc(S(=O)(=O)N2CCN(c3ncnc4c3oc3ccccc34)CC2)cc1 [CBK296936] | 98.9935
COc1ccc(C(=O)CCCN2CCc3c([nH]c4ccc(OC)cc34)C2)cc1 [CBK083515T] | 81.9647
COC(=O)CCC(=O)N1CCc2c([nH]c3ccccc23)C12CCN(CCCc1ccccc1OC)C2 (stereo not shown) [CBK074952] | 81.1537

SMILES | % of control remaining
CS(=O)(=O)c1cccc(C(=O)Nc2cnc(-c3ccc(F)c(Cl)c3)c(-c3cccnc3)n2)c1 [CBK036779] | 91.2973
CCn1c(=O)n(CC(=O)NCc2cccs2)c2cccnc21 [CBK283811] | 100.359
Cc1ccc(OCCn2c(=N)n(CCN3CCOCC3)c3ccccc32)cc1 [CBK269085B] | 84.622
NS(=O)(=O)c1ccc(NC(=S)NC(=O)/C=C/c2ccc([N+](=O)[O-])cc2)cc1 [CBK262176] | 106.222
COc1cc(C(=O)O)ccc1Oc1cnn(-c2ccccc2)c(=O)c1Cl [CBK287032] | 85.1392
Cc1ccc(-c2nc3ccccc3[nH]2)cc1NC(=O)COc1cccc([N+](=O)[O-])c1 [CBK265932] | 140.41
O=C(CCc1cccnc1)NC1Cc2ccccc2C1 [CBK200352] | 94.4408
Cc1cc(=O)n(CC(=O)NC(C)c2ccccn2)c2ccccc12 (stereo not shown) [CBK281820] | 127.931
CC(C)(C)OC(=O)NC1CCC(NCc2cc(F)cc(F)c2)CC1 (stereo not shown) [CBK056689] | 88.3829
Cc1ccc(NC(=O)C2CCCCC2C(=O)O)cc1Cl (stereo not shown) [CBK286938] | 84.0197
O=C1NCC2(CCCN(Cc3ccccc3F)C2)Oc2ccccc21 (stereo not shown) [CBK284901] | 107.971
CCCn1ccnc1-c1cn(Cc2cc(C(C)(C)C)n[nH]2)nn1 [CBK306791] | 69.2467
C[C@@H](c1ccccc1)n1c(=O)[nH]c2ncc(-c3cccc(C(=O)NCCN(C)C)c3)nc21 [CBK064376] | 124.673
Cc1ccn(CCNC(=O)CC2CC3CCC2C3)n1 (stereo not shown) [CBK282068] | 91.722
O=C(O)CC1C(=O)NCCN1Cc1ccccc1Cl (stereo not shown) [CBK270114] | 92.4773
CCCC(=O)c1ccc(S(=O)(=O)N2CCN(Cc3cccc(Br)c3)CC2)cc1 [CBK063146] | 70.3945
CC(C)(C)c1cc(CCCOC(=O)CNC2CCCCC2)cc(C(C)(C)C)c1O [CBK261998] | 95.9762
CC(C)c1cc(C(=O)NC2CCOc3ccccc32)no1 (stereo not shown) [CBK283065] | 78.7145
NC(=O)c1cccc(OCCOc2nccnc2N2CCNCC2)c1 [CBK014338G] | 80.972
COc1ccc(CNC(=O)C2CC(=O)N(c3ccc(O)cc3)C2)cc1 (stereo not shown) [CBK270125] | 86.3317
CC(C)N(C(=O)CN1C(=O)N2CCCN=C2c2ccccc21)C(C)C [CBK284400] | 88.506
Cc1cc(C)n(CCCNC(=O)Nc2cccnc2)n1 [CBK304820] | 84.1878
O=C1CCC(C(=O)Nc2cnc(-c3cccc(C(F)(F)F)c3)c(-c3cccnc3)n2)=NN1 [CBK036950] | 84.3106
Cc1cc(CNC(=O)C(C)n2cnc3ccccc32)on1 (stereo not shown) [CBK282196] | 97.1441
O=C(O)CCc1ccc(-c2cn3ccnc3c(N3CCOCC3)n2)cc1 [CBK066166] | 122.286
CS(=O)(=O)c1ccccc1C(=O)n1ccn(-c2ccc(Oc3ccccc3)cc2)c1=O [CBK106647] | 109.316
Cc1ccc(Cn2c(CN3CCOCC3)nc3c2c(=O)n(C)c(=O)n3C)cc1 [CBK269583] | 74.6227

SMILES | % of control remaining
O=C(NCCCn1ccnn1)c1cccc(S(=O)(=O)N2CCCCC2)c1 [CBK304660] | 44.9295
O=C(c1ccco1)N1CCC[C@H]1[C@H](O)c1nccs1 [CBK284286] | 68.2926
c1ccc(CSc2nc3ccccc3s2)nc1 [CBK027737] | 54.2201
O=S(=O)(NC1c2cccc3cccc(c23)C1Sc1ncccn1)c1ccc(Cl)cc1 (stereo not shown) [CBK264638] | 94.4288
Oc1ccc(Cl)cc1/C=N/c1ccc(-c2cc(-c3ccc(/N=C/c4cc(Cl)ccc4O)cc3)ncn2)cc1 [CBK261626] | 98.369
O=C(Nc1ccc(-c2c3ccccc3c(-c3ccc(NC(=O)c4cccc5ccccc45)cc3)c3ccccc23)cc1)c1cccc2ccccc12 [CBK261164] | 97.6707
Clc1ccc(-c2cc(N3CCN(c4ccccn4)CC3)ncn2)cc1 [CBK091085] | 121.188
CCOC(=O)N1CCC(NC(=O)N2CCN(C3CCN(C)CC3)CC2)CC1 [CBK156113] | 98.7163
Clc1ccc(SCCCNCCN2CCOCC2)cc1 [CBK268603C] | 83.2391
CC(=O)c1cccc(NC(=O)Nc2cccc(S(=O)(=O)N3CCOCC3)c2)c1 [CBK266996] | 103.307
O=C(NC(=O)C1CCN(CCc2cccc(C(F)(F)F)c2)CC1)Nc1cccc2ccccc12 [CBK035070] | 89.3998
O=C(c1cc(Br)cc2c1OCC2)N1CCCCC1 [CBK007109] | 93.8083
CCC1(CC)OC(NC2CCCc3ccccc32)=NC1=O (stereo not shown) [CBK126555] | 75.7709
O=C1c2cc(S(=O)(=O)NCc3ccco3)ccc2-c2ccc(S(=O)(=O)NCc3ccco3)cc21 [CBK262250] | 93.3263
CN1CCN(CCCNC(=O)c2ccc(-c3ccoc3)nc2)CC1 [CBK156257] | 118.939
NS(=O)(=O)c1ccc(NC(=S)NNC(=O)c2ccc(Br)o2)cc1 [CBK266972] | 107.917
Cc1ccccc1Oc1ccccc1NC(=O)CN1CCCCC1 [CBK015781C] | 79.429
COc1ccccc1N1CCN(C(=O)NCC2CCCCC2)CC1 [CBK155588] | 103.384
CCOc1cc(NC2CCN(C(=O)NCC(F)F)CC2)ncn1 [CBK305485] | 76.408
Cc1nc(-c2ccccc2)ncc1COC(=O)N1CCOCC1 [CBK200147] | 88.7298
CCN(CC)C(=O)c1cccc(NC(=O)Cc2cn3ccsc3n2)c1 [CBK305353] | 44.2758
C=CCOc1c(Br)cc(CNc2ccc(C(=O)O)cc2)cc1OC [CBK267202] | 56.1824
Cc1ccc([N+](=O)[O-])cc1S(=O)(=O)Nc1ccc(O)c(Sc2nc3ccccc3s2)c1 [CBK266936] | 126.716
COCc1nnc(Sc2cc(NC(C)C)ncn2)s1 [CBK093784] | 84.7996
CC[C@H](Cn1ncc2ccccc2c1=O)NC(=O)C(C)(C)C [CBK284304] | 65.9143
